{"source": "paper PMC6212398", "about": "(2018)", "parents": {"B1": {"name": "Hsp27 IPV H peptide (EITIPVTHE) [human] / Hsp27 alpha-crystallin domain (ACD, […]) [human] (parent complex)", "chain 1": "EITIPVTHE", "chain 2": "not shown"}}}
{"variants_of": "B1", "test": "ITC; parent: 1.15e+04 nM", "units": {"Kd": "µM"}}
{"variant": "chain 1 I2A", "Kd": 12.6}
{"variant": "chain 1 T7A", "Kd": 9.43}
